# Results reported in article PMC6212790.
# The other results are listed elsewhere or left out. At the low end of the ranking the order means little.
# Target: T1, GST-Rok-C97-191 (UniProt O34857)
# T1 sequence: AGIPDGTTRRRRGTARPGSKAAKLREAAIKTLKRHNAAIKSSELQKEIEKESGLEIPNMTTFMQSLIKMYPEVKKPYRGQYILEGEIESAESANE
# Assay: protein binding microarray;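 note: rank score from −0.5 (least bound) to 0.5 (best bound)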
# Details: Rok is a gene silencer of Bacillus subtilis; high values mean tight binding; most listed sequences are background and not binding sites; double strand, one strand shown
row,Sequence,binding signal [E-score]
1,CCAATCCA,-0.115
2,CCTTAGCG,-0.12
3,CTTGGAAA,-0.154
4,AACAACAC,-0.0729
5,CCCCGATC,-0.273
6,AGAATTAC,0.217
7,CTAAGCCC,-0.256
8,ATCAGACG,-0.0325
9,AGGACAGC,-0.258
10,CGCGGTTA,-0.143
11,ACGCCCCA,-0.283
12,GTTTGTCA,0.0023
13,AATGGCTG,-0.119
14,GGGCCCAA,-0.237
15,CGCAGGAA,-0.0886
16,CCTAGCCG,-0.252
17,GAAAGTGA,0.125
18,CGTGCGTC,-0.0938
19,AAACGCGA,-0.156
20,AACCCAGT,0.0667
21,GACAGGTA,0.0835
22,AATGTTGA,-0.106
23,CGCTACGC,-0.103
24,CTGAATAC,0.101
25,GCGGAGAA,-0.133

row,Sequence,binding signal [E-score]
1,AGCAAAAG,-0.137
2,AGCTTATA,0.215
3,CCGCGCCG,-0.245
4,AAACGAGT,0.00967
5,ACCATTCG,0.00667
6,TAGCAATA,0.166
7,ACGCAGCA,-0.167
8,CCGTCAGA,-0.151
9,AATAAGGC,0.113
10,CCCCCTCG,-0.425
11,CCGGGGTA,-0.0747
12,CAAGAAAC,0.224
13,ACCGGAGG,-0.0402
14,ACAGATGG,0.00706
15,ACTCCTTG,-0.133
16,CAACCGGC,-0.118
17,ACCAGTAA,-0.118
18,AGCTTCTC,0.00428
19,CCTGGGTA,0.0135
20,GGCACCCC,-0.363
21,ATACCTGC,0.212
22,GGTCACCA,-0.176
23,TGTCTCAA,-0.0115
24,ACCACTTA,0.228
25,ATATGGGG,0.0207

row,Sequence,binding signal [E-score]
1,AATGCTTA,0.084
2,GGCCCACA,-0.15
3,CACTACGC,-0.0311
4,CGCTCTAG,-0.143
5,GATGTCGA,0.0109
6,AGACGCGC,-0.0811
7,CTTTATTC,-0.0247
8,CGTCCTTC,-0.169
9,CAGCCAAG,-0.197
10,CACCAAGA,0.0142
11,AACCCTGG,-0.132
12,CCTACTAA,0.101
13,CACCCCCG,-0.18
14,CCAACGGC,-0.264
15,GCGCAATA,0.0439
16,AGCTCCAC,0.0579
17,GCTTAAAC,-0.0162
18,AAACTCCG,0.115
19,ATACACTC,0.135
20,CGGGTGAG,-0.159
21,CCGGTAGA,0.112
22,ACGTCAGT,-0.175
23,CATGGCCC,-0.222
24,CATTTCAG,-0.0928
25,AAGTGGAG,-0.272

row,Sequence,binding signal [E-score]
1,AAAGTCGA,-0.0221
2,TCGCTGAA,-0.142
3,AGAAGCGC,0.0435
4,AGGTTTAC,0.0337
5,AGGAAGGG,-0.174
6,ACGAGGGC,-0.296
7,AATCTTCG,0.0127
8,AGTGGGGA,-0.292
9,CATCACAG,-0.0211
10,AGTAGATG,0.29
11,CACGAAGC,-0.104
12,CTTGGGTA,0.0227
13,AATATACT,0.367
14,CGTTATGC,-0.0427
15,GTCCACTA,0.00191
16,CTTTTTGC,-0.0956
17,CTTCAGAC,-0.188
18,TAGGTCAA,0.0924
19,GGATTAAA,0.0951
20,TCCTGCGA,-0.149
21,AAGGGCGC,-0.216
22,ACGAGGTG,-0.0517
23,ACTACGTC,0.107
24,AACAAGCT,-0.105
25,CCACAAGG,-0.265

row,Sequence,binding signal [E-score]
1,TAAGAACA,0.0838
2,ATGTCCAC,-0.0386
3,AAGAGACG,-0.0857
4,AGCATTCC,0.0745
5,CTGTCAAG,-0.11
6,ATTAAAGG,-0.155
7,ATCGCCGA,-0.089
8,AGGGTTCG,-0.182
9,ATTGCGGG,-0.154
10,AACAAGGA,-0.0469
11,ATCTCGGG,0.0948
12,ATCGCGTC,-0.062
13,CCAGCAAG,0.0935
14,GGTTCTAA,-0.0779
15,ACAGCTTG,-0.0952
16,AAGCTTGC,-0.0667
17,AGAAGGGA,-0.178
18,ATCACGTG,0.203
19,CGGGTGCC,-0.198
20,GGCCCTAA,-0.21
21,ATGCTAAC,0.0463
22,ACGCTGCT,-0.192
23,ACGTAAGA,0.171
24,AAGGCTGT,-0.191
25,ACACGAAA,0.0148

row,Sequence,binding signal [E-score]
1,ACCAACGA,-0.0442
2,CGGCAGAC,-0.0726
3,GGCTAGCA,0.0134
4,CGAGACCC,0.0527
5,CGGGATGA,-0.0452
6,TGGCTACA,-0.194
7,CGTGATTA,0.0283
8,CGAGGGCG,-0.211
9,AGCGTATG,-0.0372
10,ACTAATCT,0.219
11,AGCCAGTG,-0.277
12,AGACTCGA,-0.0683
13,GGCAAGCA,-0.204
14,GGTCGGAC,-0.173
15,ATAAGGGG,-0.198
16,CCCTAGTA,0.126
17,CTGCTTAC,0.115
18,CCGTAGCA,0.075
19,AGTCAATG,-0.121
20,CATAATTA,0.2
21,ATTCATAA,0.3
22,AGAGTACA,0.0945
23,AAAACCTC,0.00635
24,GACCGCCC,-0.194
25,CGAGGGCC,-0.257

row,Sequence,binding signal [E-score]
1,GGGAAAAA,0.0895
2,TTGAACAA,0.0664
3,ACCCACAA,0.0446
4,AGACTCAT,-0.158
5,CTAATGAG,-0.166
6,GCGGCGAC,-0.316
7,GGGGCTAC,-0.217
8,AAATCGTT,0.0574
9,ACGATGAC,-0.181
10,CGACGACG,-0.0748
11,TACGGCTA,0.00794
12,CGGTGCAC,-0.289
13,GTAGCTAC,0.428
14,AAGCTCCA,-0.0852
15,CTTACACA,-0.000989
16,AGGTTCTA,0.118
17,ACCCTTCG,-0.18
18,CGACCACC,-0.152
19,GCGTTTGA,-0.0325
20,GATAGCGA,0.0913
21,CCCGGCGA,-0.168
22,TACAAGGA,0.0478
23,AATATCGA,0.164
24,ACCGGCCC,-0.158
25,CATCCCTC,-0.221

row,Sequence,binding signal [E-score]
1,CATCGTGG,-0.184
2,GAACGACA,0.0828
3,CTCTTTCA,-0.118
4,CGCCCGGC,-0.331
5,GAGCGAGA,-0.075
6,ATCTGTCA,-0.24
7,AGGTAGAC,0.093
8,GCTAGATA,0.288
9,AACCGATC,0.0855
10,TCGCGTCA,-0.108
11,ACTCTAAT,0.184
12,CGACGGTA,0.0893
13,CTATACCC,0.0148
14,AGCTGTTC,0.00614
15,GCACGCCA,-0.0366
16,CAAGAGCC,-0.112
17,TACATTAA,0.242
18,CGGGCACG,-0.195
19,TATCTCGA,0.128
20,AGCGGGTC,-0.00397
21,CCGACACA,-0.054
22,ATGCCTGA,-0.0618
23,CCTGCTGA,-0.155
24,ACCTATGG,-0.223
25,ATCAGGAG,-0.202

row,Sequence,binding signal [E-score]
1,ACGCAACT,0.0546
2,ACTCCTGC,-0.0798
3,AAAAACTG,0.0182
4,ACCAAAAT,0.113
5,CCGGAACG,-0.0427
6,GAAGATCA,0.0878
7,ACTCAGGG,-0.0646
8,ACCGCGTG,-0.177
9,CCCATCAA,-0.094
10,AGGCCAAT,-0.176
11,AATCCTCG,-0.299
12,CTTTCCCC,-0.0416
13,GGTAGGTA,0.331
14,GTTGCCGA,-0.128
15,AAACCTGA,-0.0895
16,CCCTCTAA,-0.074
17,CATTAACA,0.116
18,CACCGCTG,-0.0906
19,ATTCCCTC,-0.114
20,GTAAACCA,0.134
21,AGGATTGG,-0.179
22,CAGTGATC,-0.136
23,AGCGAAGG,-0.231
24,ACTTACCG,0.145
25,CTAGGTAA,0.102

row,Sequence,binding signal [E-score]
1,GCGAGCAA,-0.0854
2,ACCTCCGG,-0.0674
3,GACGCCGA,-0.224
4,CCCTATCA,-0.0872
5,CATAGTCC,-0.076
6,CTCCCCAG,-0.351
7,GGGTTTAC,-0.00388
8,CTGCGTTA,-0.0638
9,AGCCACCC,-0.246
10,GGTCATAC,0.051
11,CGCCCTAA,-0.151
12,CATAGATC,0.231
13,ATAACTCA,0.132
14,AAGGTTAA,0.0704
15,ACCTCCAC,-0.155
16,GCGCCTCC,-0.384
17,CGACGTCG,-0.174
18,GGTGACAA,-0.0754
19,CGTCACCC,-0.332
20,CTGAATGA,-0.213
21,ATACAGAC,0.0329
22,ATGGCTAA,0.0632
23,CGCTTACC,-0.097
24,CCCCCAAC,-0.36
25,AACTTCAA,0.0439

row,Sequence,binding signal [E-score]
1,CCGCTTTC,0.0607
2,AGAGAATG,0.0921
3,ATCAGATG,0.146
4,ACCAGACG,-0.153
5,ACGCAGGC,-0.296
6,AAGTCCAC,-0.116
7,AACGTTGT,0.168
8,AAGAGCAG,-0.153
9,ACCGTGTA,0.00113
10,ATCTAGCC,0.168
11,ACTTGGCT,0.0691
12,CCGGGCAG,-0.302
13,ACAGGCAG,-0.324
14,TAATTGGA,0.0517
15,TCTATAGA,0.311
16,GAGGGTAC,-0.155
17,ACCGGCAG,-0.0869
18,AGCGCGGC,-0.11
19,GGGTTCGA,-0.000728
20,AGAACCGA,0.0991
21,CAAGCACG,-0.178
22,AGTAATAG,0.355
23,CACTACGG,0.0947
24,CGCAGGTC,-0.231
25,CATATTGC,0.0992

row,Sequence,binding signal [E-score]
1,CGGGGTAC,-0.169
2,TAATACGA,0.284
3,GACGTATC,0.0546
4,CCCTGTAA,-0.0724
5,GGACGTCA,-0.212
6,GTTATGAA,0.214
7,TCGTGAGA,0.0406
8,ACATGCGT,-0.0138
9,CTCGTGGC,-0.346
10,GCATGACA,-0.159
11,CACTCTGG,0.0657
12,CACTTTAA,0.0796
13,AGGCGTTA,0.0492
14,CATATAAG,0.0717
15,AGCGGTAG,0.33
16,ACATCTAG,0.323
17,GCAAGTAA,-0.0287
18,CGCGACCC,-0.177
19,ATACGCGA,0.229
20,TCAATTAA,0.161
21,GACTCCCA,-0.104
22,GTAATTGA,0.0917
23,AGGCGTAC,-0.128
24,GCATAACA,0.112
25,CTCTGATA,-0.0272

row,Sequence,binding signal [E-score]
1,ATAGTAAG,0.278
2,ACCGCAAC,0.0546
3,ACCAGGGC,-0.272
4,CGTTAGAC,-0.112
5,CAGCCTGA,-0.0891
6,ACCTTATG,-0.0324
7,AAAGCATT,0.0498
8,AATTCTGG,0.093
9,GCAATAGC,-0.0919
10,CGTAGTAG,0.223
11,ATTTCTAC,0.353
12,GCGCGAGA,0.0479
13,GGCAAGAC,-0.151
14,AACGTTGC,-0.026
15,CGAGAACA,0.0544
16,CGCTTGTA,-0.0651
17,AGTGCAGC,-0.17
18,AGGCTAAT,-0.085
19,GTTCACTA,0.143
20,AGGAACAA,0.00858
21,ATACTATC,0.359
22,GATCACCA,0.041
23,CAGAACTC,-0.00555
24,GCCAAATA,0.0984
25,ACACTGGG,-0.257

row,Sequence,binding signal [E-score]
1,CATATTAG,0.274
2,GGCGCAAC,-0.169
3,AAAAACCT,0.256
4,AATGGCGT,-0.0931
5,AGGTCTCC,-0.157
6,ATTGCAAA,0.00635
7,GTGATAGA,0.268
8,AGTTAGTC,0.102
9,ACCAGGTA,-0.0594
10,AGGGTCGC,-0.122
11,CGGTCTGA,-0.0369
12,CTGAAGCA,-0.0795
13,CATCAACC,-0.0486
14,ATAAAGCG,-0.0612
15,AGGAGCCG,-0.0611
16,GGCCGCGA,-0.23
17,GAGCTGAC,-0.127
18,CTGGGACA,-0.177
19,ATTGTGGC,0.118
